Assay results from PubChem BioAssay AID588591 (National Center for Advancing Translational Sciences (NCATS), 2011).
In all, about 390,000 compounds went through this assay and about 4,700 (1.2%) were called active. The inconclusive results got no clear call from the source; some entries with a clear call stand among them for comparison. Calls follow the shape of the dose curve; as a rule, active = well fitted inhibition curve with a large enough effect; inconclusive = small, poorly fitted or top-dose-only effect, or another doubt; inactive = no such curve, though single readings can be large or run the other way. A potency beside an inconclusive call is a rough fit, not a confirmed value.

Each molecule was assayed against DNA polymerase eta (Homo sapiens) (UniProt Q9Y253) (assay: qHTS for Inhibitors of Polymerase Eta). Settings: recombinant Pol eta, fluorescent DNA replication assay; series mostly up to 114 µM.
Outline: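 Pol eta (10 nM) was preincubated with compounds for 15 min at room temperature, after which fluorescent replication substrate (50 nM final) was added to start the reaction. Fluorescence was read kinetically at 0 and 10 min.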
Potency is read from the fitted curve at half-maximal effect; tags tell the direction and shape of the fitted curve.

Chain of UniProt Q9Y253 (Q9Y253 whole entry, looked up): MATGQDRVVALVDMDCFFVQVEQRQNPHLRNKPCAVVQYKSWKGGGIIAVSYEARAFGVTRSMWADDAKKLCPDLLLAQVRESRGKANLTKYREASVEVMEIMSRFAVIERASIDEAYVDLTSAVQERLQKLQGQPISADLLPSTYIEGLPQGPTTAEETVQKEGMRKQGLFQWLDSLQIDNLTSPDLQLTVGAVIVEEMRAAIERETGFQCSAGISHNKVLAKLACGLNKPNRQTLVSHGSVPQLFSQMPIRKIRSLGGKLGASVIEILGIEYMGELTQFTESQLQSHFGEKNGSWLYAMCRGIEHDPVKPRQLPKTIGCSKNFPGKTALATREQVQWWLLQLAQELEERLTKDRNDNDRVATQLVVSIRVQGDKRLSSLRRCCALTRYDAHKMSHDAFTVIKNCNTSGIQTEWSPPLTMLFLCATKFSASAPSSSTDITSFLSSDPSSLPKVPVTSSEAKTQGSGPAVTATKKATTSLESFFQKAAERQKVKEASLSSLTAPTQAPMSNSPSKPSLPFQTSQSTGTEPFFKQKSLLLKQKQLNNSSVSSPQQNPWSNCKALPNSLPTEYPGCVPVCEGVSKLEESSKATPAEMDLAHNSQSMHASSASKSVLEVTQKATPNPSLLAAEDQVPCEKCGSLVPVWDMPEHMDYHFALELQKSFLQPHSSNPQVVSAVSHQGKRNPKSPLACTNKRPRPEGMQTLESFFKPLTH

SMILES | Potency
Cc1ccc2sc(-c3ccc(NC(=O)/C=C\C(=O)O)cc3)nc2c1 | inconclusive: 89.1 µM [inhibitor, single point]
C1=CC2c3ccccc3NC(c3ccncc3)C2C1 (stereo not drawn) | inconclusive: 25.1 µM [inhibitor, partial curve]
Cc1ccc(Cl)cc1NC(=O)COC(=O)C1CCCCC1 | inactive
Cc1cc2ccccn2c1C(=O)c1ccc(N/N=C/c2ccc(C(=O)O)cc2)c([N+](=O)[O-])c1 | active: 35.5 µM
Cc1cc(C(=O)CN2c3cccc4cccc(c34)S2(=O)=O)c(C)n1C | inconclusive: 17.8 µM [inhibitor, full curve]
COc1cc(NC(=O)Cn2c(=O)n(CC(=O)NCCc3ccc(OC)c(OC)c3)c(=O)c3sccc32)cc(OC)c1 | inconclusive: 89.1 µM [inhibitor, partial curve, poor fit]
O=C(COC(=O)c1ccc([N+](=O)[O-])o1)NCc1ccc2c(c1)OCO2 | active: 79.4 µM
Cc1nc2c(c(=O)n1CCC(C)C)c1nc3ccccc3nc1n2CC1CCCO1 (stereo not drawn) | inconclusive: 100 µM [inhibitor, single point]
COc1ccc(Cl)cc1NC(=O)Cn1ncc2c3ccccc3n(Cc3ccccc3)c2c1=O | inactive
CCOC(=O)N1CCC(NC(=O)c2cccn3c(=O)c4cc(Br)ccc4nc23)CC1 | inconclusive: 2.82 µM [inhibitor, full curve, poor fit]
O=C(N/N=C/c1ccc(-c2ccc([N+](=O)[O-])cc2)o1)c1cccnc1 | inconclusive: 79.4 µM [inhibitor, partial curve]
CC(C)(C)NC(=O)Cc1ccc(S(=O)(=O)N2CCCC2)s1 | active: 14.1 µM
O=C(O)C1CC=CCC1C(=O)Nc1ccccc1 (stereo not drawn) | inconclusive: 89.1 µM [inhibitor, single point]
CC(Oc1ccc(Cl)cc1Cl)C(=O)NC1=NN(c2ccccc2)C(=O)C1 (stereo not drawn) | inconclusive: 25.1 µM [inhibitor, single point]
O=C1C=C(N2CCOCC2)c2ccccc2C1=O | active: 5.62 µM
Cc1ccc(OCC(=O)c2c(N)n(C)c(=O)n(C)c2=O)c([N+](=O)[O-])n1 | active: 11.2 µM
CCC1=NN(C(=O)c2cccc(Br)c2)C(O)(c2ccc(Br)cc2)C1 (stereo not drawn) | inconclusive: 79.4 µM [inhibitor, partial curve, poor fit]
CC(/C=C/c1ccco1)=N\NC(=O)c1cc(Cl)ccc1O | active: 22.4 µM
O=C(NN(C(=O)c1ccccc1)c1ccccc1)c1ccccc1 | inconclusive: 89.1 µM [inhibitor, partial curve, poor fit]
Cc1cccc2c1NC(=O)C2=O | active: 8.91 µM
O=C(CSc1ccc(-c2ccco2)nn1)Nc1ccc(F)cc1 | inconclusive: 39.8 µM [inhibitor, partial curve, poor fit]
COc1cc(C2Nc3ccc4ncccc4c3C3=C2C(=O)CCC3)cc(OC)c1O (stereo not drawn) | inconclusive: 31.6 µM [inhibitor, partial curve, poor fit]
CCOC(=O)c1cc(-c2ccc(/C=C3/C(=O)NC(=O)C(C#N)=C3C)o2)ccc1Cl | active: 28.2 µM

SMILES | Potency
COc1ccc(Cn2c(-c3ccccc3)nc3c(c(=O)c4ccccc4n3C)c2=O)cc1 | inconclusive: 15.8 µM [inhibitor, full curve, poor fit]
COc1ccccc1N(CC(=O)NC1CC2CCC1C2)S(=O)(=O)c1ccc(C)cc1 (stereo not drawn) | inconclusive: 89.1 µM [inhibitor, partial curve, poor fit]
COc1ccc(NCc2nn(CC(=O)c3ccc(Br)cc3)c3[n+]2CCCCC3)cc1 | inconclusive: 4.47 µM [inhibitor, full curve, poor fit]
COc1ccc(/C=C2/C(=O)N(c3nc4ccccc4s3)N=C2CSc2ccc(Cl)cc2)cc1 | inconclusive: 14.1 µM [inhibitor, partial curve, poor fit]
CCC(/C=C1\Sc2ccc(OC)cc2N1CC)=C\c1sc2ccc(OC)cc2[n+]1CCCS(=O)(=O)[O-] | inconclusive: 5.01 µM [inhibitor, full curve, poor fit]
COc1ccc(N2Cc3cccc(C(=O)O)c3C2=O)cc1 | active: 3.98 µM
CC1(OC(=O)C2CCCC2)C(=O)C=C2C=C(c3ccsc3)OC=C2C1=O (stereo not drawn) | active: 31.6 µM
O=C(CNS(=O)(=O)c1ccccc1)NCC(=O)OCc1ccc(Cl)cc1 | inconclusive: 89.1 µM [inhibitor, partial curve, poor fit]
Cc1ccc(N=c2oc3cc(O)ccc3cc2C(N)=O)cc1 | inconclusive: 31.6 µM [inhibitor, single point]
CSCc1ccc(C(=O)NCC(c2cccs2)N2CCOCC2)cc1 (stereo not drawn) | inactive
COc1ccc(C)cc1NC(=O)CSc1nnc(-c2ccco2)n1Cc1ccco1 | inconclusive: 25.1 µM [inhibitor, single point]
C=C(C)C(=O)OCCCCCCOc1ccc(C(=O)O)cc1 | active: 35.5 µM
CC(C)(C)OC(=O)NC(Cc1ccccc1)C(=O)N1CCCC1C(=O)O (stereo not drawn) | inactive
Cc1ccc2ccc3cc(C(=O)N4CCN(c5ccccc5F)CC4)nc3c2[nH]1 | inconclusive: 100 µM [inhibitor, partial curve, poor fit]
COc1ccccc1NC(=O)c1c(-c2ccc(C)cc2)nnc2ccccc12 | inactive
CC(C)C1CC(=O)NC(SCC(=O)Nc2ccc(Br)cc2)=C1C#N (stereo not drawn) | inconclusive: 12.6 µM [inhibitor, partial curve, poor fit]
CCOC(=O)C1CCCN(C(=O)c2ccc(CS(=O)(=O)c3ccc(C)cc3)o2)C1 (stereo not drawn) | active: 17.8 µM
Cc1ccc(NC(=O)Cn2c(=O)n(Cc3nc(-c4ccccc4)no3)c(=O)c3ccccc32)c(C)c1 | inactive
COc1ccc(NC(=O)c2cnn3c(C(F)(F)F)cc(-c4ccco4)nc23)cc1OC | inconclusive: 7.08 µM [inhibitor, full curve, poor fit]
CC(=O)c1ccc(NC(=O)CN2CCN(c3ccccc3)CC2)cc1 | inactive
Cc1cccc(CCNC(=O)C2CCCN(c3cnccn3)C2)c1 (stereo not drawn) | inconclusive: 100 µM [inhibitor, partial curve, poor fit]
COC(=O)c1ccccc1CSc1nsc(C)c1C#N | inconclusive: 89.1 µM [inhibitor, partial curve, poor fit]
COc1cccc2c1C(=O)c1c(O)c3c(c(O)c1C2=O)CC(O)(C(C)=O)CC3OC1CC(O)C(O)C(C)O1 (stereo not drawn) | active: 25.1 µM

SMILES | Potency
CNC(=O)c1ccc(-c2sc3nc(N4CCOCC4)c4c(c3c2N)CCCC4)o1 | inconclusive: 25.1 µM [inhibitor, partial curve, poor fit]
CCn1c(SCc2cc(=O)n3ccsc3n2)nc2ccccc21 | inconclusive: 89.1 µM [inhibitor, partial curve, poor fit]
COc1cccc(CNC(=O)C2CCCN(c3nnc(-n4c(C)ccc4C)s3)C2)c1OC (stereo not drawn) | inactive
Cc1ccc(C(=O)/C=C/c2ccco2)c(O)c1 | inconclusive: 22.4 µM [inhibitor, single point]
Cc1cccc(Oc2ccc(NC(=O)C3=CC=CN4CCS(=O)(=O)N=C34)cc2)c1 | inconclusive: 89.1 µM [inhibitor, partial curve, poor fit]
COc1ccc(OC)c(CCNC(=O)c2nc(-c3ccc(Cl)cc3)n3c2CCCCC3)c1 | inactive
C[C@@H]1CN([C@@H](C)CO)C(=O)c2cc(Br)cnc2O[C@H]1CN(C)S(=O)(=O)c1ccccc1 | inconclusive: 89.1 µM [inhibitor, partial curve, poor fit]
Cc1ccc2c(=O)cc(C(=O)Nc3c(C)cccc3C)oc2c1 | inconclusive: 89.1 µM [inhibitor, single point]
COc1cccc(CNC(=O)CCC(=O)n2ncc3cc(C)ccc32)c1OC | inactive
CC(=O)Nc1ccc(NC(=O)CC2Nc3cccc4cccc(c34)NC2=O)cc1 (stereo not drawn) | inconclusive: 25.1 µM [inhibitor, partial curve, poor fit]
Cc1cccc(NC(=O)CSc2nc(C3CC3)nc3ccccc23)c1 | active: 39.8 µM
COc1ccc(C2(SCC(N)C(=O)O)c3ccccc3-c3ccccc32)cc1 (stereo not drawn) | inconclusive: 28.2 µM [inhibitor, partial curve, poor fit]
Cc1nn(CCc2nc(-c3ccco3)cs2)c2[nH]c(=O)cc(C(F)(F)F)c12 | active: 31.6 µM
O=C(CNc1cccc2ccccc12)N/N=C/c1ccc(C(=O)O)cc1 | inconclusive: 31.6 µM [inhibitor, single point]
Cc1nnc(SCC(=O)NCc2ccco2)[nH]c1=O | active: 31.6 µM
Clc1ccc(C2=CSC3=Nc4cccc5cccc(c45)N23)cc1 | inconclusive: 20 µM [inhibitor, partial curve, poor fit]
Cc1ccc(Cl)cc1NC1=C/C(=N\S(=O)(=O)c2cccs2)c2ccccc2C1=O | inconclusive: 11.2 µM [inhibitor, partial curve, poor fit]
CC(C(=O)Nc1ccc2c(c1)OCCO2)N1Cc2ccccc2C1=O (stereo not drawn) | inactive
Cc1ccc(NC(=O)c2ccc3c(c2)NC(=O)c2ccccc2S3)c(Cl)c1 | inactive
Cc1nn(CC(=O)NC2CC2)c(=O)c2cc3cc(F)ccc3n12 | inactive
CCc1ccc(C(=O)O)cc1 | inactive
COc1ccc(-n2c(SCC(=O)N3CCc4ccccc43)nnc2-c2c[nH]c3ccccc23)cc1 | inconclusive: 6.31 µM [inhibitor, full curve, poor fit]
